From the supplement of paper PMC9174493
The other results are listed elsewhere or left out. Single values of this set are uncertain. Values with irradiation are relative to irradiated vehicle.

Experiments:
A549-Dual [1] = assay: NF-kB reporter (SEAP) activity, viability-corrected, relative to vehicle (fold change vs vehicle); higher = more activation of STING-IRF / NF-kB immune response reporter; details: 10 µM
A549-Dual [2] = assay: ISRE reporter (Lucia luciferase) activity, viability-corrected, relative to vehicle (fold change vs vehicle); higher = more activation of STING-IRF / NF-kB immune response reporter; details: 10 µM
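Wherever NF-kB reporter (SEAP) activity, viability-corrected, relative to vehicle is given: viability correction based on the alamar blue assay, with concentrations leaving 10% survival or less dropped.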

| Structure (SMILES) | NF-kB reporter (A549-Dual [1]; irradiation: 8 Gy/4 fr) | NF-kB reporter (A549-Dual [1]; irradiation: none) | ISRE reporter (A549-Dual [2]; irradiation: 8 Gy/4 fr) | ISRE reporter (A549-Dual [2]; irradiation: none) |
| --- | --- | --- | --- | --- |
| CC(C)(C(=O)O)c1ccc(C(O)CCCN2CCC(C(O)(c3ccccc3)c3ccccc3)CC2)cc1.Cl (stereo not drawn) [Fexofenadine HCl] | 0.522 | 0.582 | 0.576 | 0.844 |
| CC(O)CO (stereo not drawn) [1,2-Propanediol] | 0.794 | 0.775 | 0.954 | 0.616 |
| O=C(O)/C=C/c1ccccc1 [Cinnamic acid] | 0.86 | 0.891 | 0.985 | 0.726 |
| N#C/C(=C1/SCC(c2ccc(Cl)cc2Cl)S1)n1ccnc1 (stereo not drawn) [Luliconazole] | 0.819 | 0.903 | 0.976 | 0.92 |
| O=C([O-])CN(CCN(CC(=O)[O-])CC(=O)[O-])CCN(CC(=O)[O-])CC(=O)[O-].[Ca+2].[Na+].[Na+].[Na+] [pentetate calcium trisodium hydrate] | 0.6 | 0.604 | 0.65 | 0.765 |
| Cc1c(-c2ccccc2)oc2c(C(=O)OCCN3CCCCC3)cccc2c1=O.Cl [Flavoxate HCl] | 1 | 1.7 | 0.751 | 0.83 |
| OCC(O)C(O)C(O)CO (stereo not drawn) [Xylitol] | 0.691 | 0.541 | 0.569 | 0.39 |
| O=c1oc2ccccc2c(O)c1Cc1c(O)c2ccccc2oc1=O [Dicoumarol] | 1.48 | 1.05 | 1.4 | 1.01 |
| CC(C)NCC(O)c1ccc(NS(C)(=O)=O)cc1.Cl (stereo not drawn) [Sotalol HCl] | 1.17 | 1.12 | 1.08 | 1.19 |
| O=C(O)/C=C/C(=O)O.OCCOCCN1CCN(C2=Nc3ccccc3Sc3ccccc32)CC1.OCCOCCN1CCN(C2=Nc3ccccc3Sc3ccccc32)CC1 [Quetiapine Fumarate] | 1 | 0.805 | 1.36 | 1.19 |
| COc1ccccc1 [Anisole] | 0.781 | 0.879 | 0.599 | 0.573 |
| O=C(/C=C/c1ccc(O)c2c1C(C(=O)OC(Cc1ccc(O)c(O)c1)C(=O)O)C(c1ccc(O)c(O)c1)O2)OC(Cc1ccc(O)c(O)c1)C(=O)O (stereo not drawn) [Salvianolic acid B] | 0.75 | 0.494 | 0.639 | 0.498 |
| NCC1OC(OC2C(N)CC(N)C(OC3OC(CO)C(O)C(N)C3O)C2O)C(N)CC1O.NCC1OC(OC2C(N)CC(N)C(OC3OC(CO)C(O)C(N)C3O)C2O)C(N)CC1O.O=S(=O)(O)O.O=S(=O)(O)O.O=S(=O)(O)O.O=S(=O)(O)O.O=S(=O)(O)O (stereo not drawn) [Tobramycin sulfate] | 0.932 | 0.722 | 0.864 | 0.658 |
| NNC(=O)c1ccncc1 [Isoniazid] | 0.64 | 0.848 | 0.695 | 0.651 |
| CC(=O)OCC(=O)C1(O)CCC2C3CCC4=CC(=O)CCC4(C)C3C(O)CC21C (stereo not drawn) [Hydrocortisone acetate] | 0.558 | 0.757 | 0.0973 | 0.286 |
| NCC1CCC(C(=O)O)CC1 (stereo not drawn) [Tranexamic Acid] | 1.09 | 1.47 | 0.836 | 0.787 |
| CCCCCCCCCC(=O)OC1(c2ccc(Cl)cc2)CCN(CCCC(=O)c2ccc(F)cc2)CC1 [Haloperidol Decanoate] | 0.664 | 1.02 | 0.688 | 0.626 |
| NC(=O)C1CCC2CN1C(=O)N2OS(=O)(=O)[O-].[Na+] (stereo not drawn) [Avibactam sodium] | 0.695 | 0.938 | 0.629 | 0.823 |
| CCOC(=O)c1c(CSc2ccccc2)n(C)c2cc(Br)c(O)c(CN(C)C)c12.Cl [Arbidol HCl] | 0.857 | 0.935 | 0.91 | 0.918 |
| Nc1ccc(C(=O)O)cc1 [4-Aminobenzoic acid] | 1.03 | 1.25 | 0.638 | 0.6 |
| Nc1ccn(C2CCC(CO)O2)c(=O)n1 (stereo not drawn) [Zalcitabine] | 0.937 | 0.88 | 1.14 | 0.728 |
| O=C(O)CCn1c2c(c3ccccc31)CC(NS(=O)(=O)c1ccc(F)cc1)CC2 (stereo not drawn) [Ramatroban] | 0.928 | 0.688 | 0.964 | 0.443 |
| NCCc1c[nH]cn1.O=P(O)(O)O.O=P(O)(O)O [Histamine Phosphate] | 1.02 | 1.53 | 1.01 | 1.24 |
| CCCSc1nc(NC2CC2c2ccc(F)c(F)c2)c2nnn(C3CC(OCCO)C(O)C3O)c2n1 (stereo not drawn) [Ticagrelor] | 0.659 | 0.808 | 0.536 | 0.637 |
| O=C(Nc1nc(-c2cc(Cl)cs2)c(N2CCN(C3CCCCC3)CC2)s1)c1cnc(N2CCC(C(=O)O)CC2)c(Cl)c1 [Avatrombopag] | 0.481 | 0.757 | 0.294 | 0.394 |
| C[S+](CCC(N)C(=O)[O-])CC1OC(n2cnc3c(N)ncnc32)C(O)C1O.Cc1ccc(S(=O)(=O)O)cc1.O=S(=O)(O)O.O=S(=O)(O)O (stereo not drawn) [Ademetionine disulfate tosylate] | 0.97 | 0.784 | 0.261 | 0.362 |
| CC(C)(Oc1ccc(C(=O)c2ccc(Cl)cc2)cc1)C(=O)O [Fenofibric acid] | 0.659 | 0.943 | 0.693 | 0.84 |
